Measurements: PubChem BioAssay AID485364 (National Center for Advancing Translational Sciences (NCATS), 2010)
Out of some 360,000 compounds screened, about 11,000 (3.1%) were called active. This list was built around the results that the source calls inconclusive (neither active nor inactive); the mix of calls is not that of the screen. The call rests on the fitted dose curve; in most records, active means well fitted inhibition curve with a large enough effect; inconclusive means small, poorly fitted or top-dose-only effect; inactive means no such curve, though single readings can be large or run the other way. No potency is given beside an inconclusive call; the fits are too rough.

molecular target: Schistosoma mansoni thioredoxin glutathione reductase (TGR) (UniProt Q962Y6); assay: qHTS Assay for the Inhibitors of Schistosoma Mansoni Peroxiredoxins; conditions: purified TGR, DTNB reduction, TNB absorbance 405 nm; activity change, negative = inhibition: at 114 µM (top of the series) unless noted; further: nearly all actives have a fitted effect of over 60% in size
In short: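 Kinetic colorimetric format: TGR-catalysed, NADPH-driven DTNB reduction monitored via TNB absorbance. Enzyme dispensed at 20 nM; compound exposure 15 min at room temperature before reaction start.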
On the % scale 0 is the no-effect control and ±100 the full control effect; potency means the concentration at half of the fitted maximal effect; tags describe the fitted curve by direction and shape.

| Compound | activity change, negative = inhibition | Potency |
| --- | --- | --- |
| O=C(NC(NC(=S)N1CCOCC1)C(Cl)(Cl)Cl)c1cccc2ccccc12 (configuration not stated) | inactive: -15.8% | – |
| COc1ccc(OC)c(NS(=O)(=O)c2cc3c(cc2Cl)N(C(C)=O)CCO3)c1 | – | active: 2.51 µM |
| CS(=O)(=O)N1CCN(C(=O)Cc2ccccc2)CC1 | – | inconclusive [inhibitor, partial curve] |
| CCN1CCN(C(=O)c2cc(-c3ccc(Cl)s3)nc3ccccc23)CC1 | – | inconclusive [inhibitor, single point] |
| CCCNC(=O)NS(=O)(=O)c1cnccc1Sc1ccc(Cl)c(Cl)c1 | – | inconclusive [inhibitor, partial curve] |
| COc1ccc(C(=O)N[C@H](C(=O)Nc2nc3ccccc3[nH]2)C(C)C)cc1 | inactive: -2.3% | – |
| O=[N+]([O-])c1cc2c(cc1/C=N/n1c(-c3ccccc3)n[nH]c1=S)OCO2 | inactive: 9% | – |
| CS(=O)(=O)Cc1nc2ccccc2oc1=O | – | inconclusive [inhibitor, single point] |
| CC(=O)c1ccc(OC(=O)COc2ccccc2)cc1 | – | inconclusive [inhibitor, full curve, poor fit] |
| O=C(CCl)NC(Cc1ccccc1)c1ccccc1 (configuration not stated) | – | active: 22.4 µM |
| COC(=O)N/N=C/c1ccc([N+](=O)[O-])o1 | – | inconclusive [inhibitor, partial curve] |
| O=C1/C(=C/c2ccc([N+](=O)[O-])cc2)CCC1C1CCCC1 (configuration not stated) | – | inconclusive [inhibitor, partial curve] |
| COc1ccc(C(=O)CN2CCN(c3ccc(Cl)cc3)CC2)cc1OC | – | active: 35.5 µM |
| COc1ccc(N(CC(=O)NCCSCc2ccc(Cl)cc2)S(C)(=O)=O)cc1Cl | – | inconclusive [inhibitor, full curve, poor fit] |
| COc1ccccc1Nc1nc(N)nc(CN2CCN(Cc3ccccc3)CC2)n1 | – | inconclusive [inhibitor, partial curve] |
| Cc1nn(Cc2ccccc2)c2c1C(c1ccco1)C(C#N)=C(N)O2 (configuration not stated) | – | active: 50.1 µM |
| Cc1ccccc1CN(C)Cc1cc(=O)oc2c(C)c(C)ccc12 | inactive: -9.04% | – |
| CCCOc1ccc(C(=O)CCN2CCCCC2)cc1 | – | active: 0.316 µM |
| COc1ccc(Cn2c(SCC(=O)NCc3ccco3)nc3ccsc3c2=O)cc1 | – | inconclusive [inhibitor, partial curve] |
| COCCNC(=O)c1c(NC(=O)c2cc(=O)c3cc(Cl)ccc3o2)sc2c1CCCC2 | inactive: 2.88% | – |
| Cc1ccc(CN2CCNC(=O)C2CC(=O)NCc2cc(C)n(C)n2)cc1 (configuration not stated) | – | inconclusive [inhibitor, partial curve] |
| Cc1cccc(C(=O)NC(=S)Nc2ccc(S(=O)(=O)N3CCN(C)CC3)cc2)c1 | – | inconclusive [inhibitor, full curve] |
| CC1CCc2sc(C(=O)NNC(=S)NCC3CCCO3)cc2C1 (configuration not stated) | – | inconclusive [inhibitor, full curve, poor fit] |
| CC1=C(CC(=O)c2ccccc2)C(=O)c2ccccc2C1=O | – | inconclusive [inhibitor, full curve] |

| Compound | activity change, negative = inhibition | Potency |
| --- | --- | --- |
| CCCc1cc(C(=O)NCc2ccco2)no1 | – | inconclusive [inhibitor, partial curve, poor fit] |
| COc1ccccc1NC(=O)CSc1oc(-c2ccccc2)nc1S(=O)(=O)c1ccccc1 | inactive: -6.29% | – |
| O=C1c2ccccc2NC(c2ccc(-c3ccccc3F)o2)N1O (configuration not stated) | – | inconclusive [inhibitor, partial curve] |
| COc1cc(-c2oc3ccc(C)cc3c(=O)c2O)cc(OC)c1OC | inactive: 8.85% | – |
| Cc1cc2c(n1-c1ccc(C(=O)NCc3ccc(OC(C)C)cc3)cc1)CCCC2 | – | inconclusive [inhibitor, partial curve] |
| Cc1ccccc1NC(=S)Nc1ccccn1 | – | inconclusive [inhibitor, partial curve] |
| CC1(C)CC(=O)C2=C(C1)OC(N)=C(C#N)C2c1ccc[nH]1 (configuration not stated) | – | active: 17.8 µM |
| COc1ccc(C(=O)NC(=S)NCc2ccco2)cc1OC | – | inconclusive [inhibitor, partial curve] |
| O=C(Nc1cc(=O)[nH]c2ncnn12)c1ccccc1Cl | – | inconclusive [inhibitor, full curve, poor fit] |
| CC1=CC(=NOC(=O)c2cccc([N+](=O)[O-])c2)C=C(C)C1=O | – | active: 2.82 µM |
| CC(/C=N/NC(=O)CSc1nnc(SCc2ccccc2)s1)=C\c1ccco1 | – | inconclusive [inhibitor, partial curve] |
| O=C(CN1C(=O)NC2(CCc3ccccc32)C1=O)c1ccc(Br)cc1 (configuration not stated) | – | inconclusive [inhibitor, partial curve] |
| CCc1ccc(CN(C)C(=O)CCc2nnc(-c3ccc(-c4ccccc4)cc3)o2)nc1 | – | active: 35.5 µM |
| COC(=O)[C@H](CCSC)NS(=O)(=O)c1ccccc1Br | inactive: 1.35% | – |
| CN(C(=O)COC(=O)COc1ccc(Cl)cc1)C1CCCCC1 | – | inconclusive [inhibitor, single point] |
| CN(C)c1ccc(N=Cc2nc(-c3ccccc3)oc2O)cc1 | – | inconclusive [inhibitor, full curve, poor fit] |
| Cc1cc(NC(=O)CSc2nnc(C(C)N(C)C)n2-c2ccc(F)cc2)no1 (configuration not stated) | – | inconclusive [inhibitor, full curve] |
| COc1cc(Cl)ccc1OCc1cc(C(=O)N[C@H]2CCCCNC2=O)no1 | – | inconclusive [inhibitor, single point] |
| Cc1ccc(S(=O)(=O)c2nc(-c3ccco3)oc2SCc2ccc(F)cc2)cc1 | – | inconclusive [inhibitor, partial curve] |
| CC1(C)Cc2c(ccc3ccccc23)/C(=C/C#N)N1 | – | active: 44.7 µM |
| C=CCNC(=O)C1CCN(c2ccc(S(=O)(=O)N3CCOCC3)cc2Cl)CC1 | inactive: -7.57% | – |
| COc1ccc(N2CCN(C(=O)C(C)n3c(=O)cc(C(F)(F)F)c4c(C)nn(C)c43)CC2)cc1 (configuration not stated) | inactive: -8.41% | – |
| CCCC[n+]1c(C)sc2cc(OC)ccc21 | – | inconclusive [inhibitor, single point] |
| CCOC(=O)C1=C(C)N(c2ccccc2)C(=O)/C1=C\c1ccc(O)c(OC)c1 | – | active: 3.16 µM |

| Compound | activity change, negative = inhibition | Potency |
| --- | --- | --- |
| O=C(CSc1nnc(-c2ccco2)n1CC1CCCO1)N1CCCCC1 (configuration not stated) | – | inconclusive [inhibitor, partial curve] |
| CC(=O)N1CCOc2cc(S(=O)(=O)Nc3c(C)cccc3C(C)C)c(Cl)cc21 | – | active: 79.4 µM |
| CCOC(=O)N1CCC(N(CCN(C)C)C(=S)Nc2ccc(F)c(Cl)c2)CC1 | – | inconclusive [inhibitor, single point] |
| O=C(/C=C/c1ccco1)N1CCN(S(=O)(=O)c2cccs2)CC1 | – | active: 3.55 µM |
| O=C(Cn1ncc2c1-c1ccccc1OC2)N1CCN(c2ccccn2)CC1 | inactive: -14.2% | – |
| Cn1c(SCC(=O)N2CCN(c3ccccc3)CC2)nnc1-c1ccco1 | – | inconclusive [inhibitor, partial curve] |
| COc1ccccc1-c1ccc(SCc2ccccc2)nn1 | inactive: -1.77% | – |
| O=C1CCN(Cc2ccccc2)CCN1[C@H](CSc1ccccc1)c1ccccc1 | – | inconclusive [inhibitor, partial curve] |
| O=C1ON=C(c2ccccc2)/C1=C\c1ccco1 | – | active: 25.1 µM |
| O=C(Cc1ccccc1)Nc1nnc(-c2ccco2)s1 | – | inconclusive [inhibitor, full curve] |
| CSCC(=O)Nc1ccc(F)c(Cl)c1 | – | inconclusive [inhibitor, partial curve] |
| O=C1/C(=C/c2ccc(O)cc2)COc2ccccc21 | – | inconclusive [inhibitor, partial curve] |
| CN1CCN(C2=C(NS(=O)(=O)c3ccccc3)C(=O)c3ccccc3C2=O)CC1 | – | inconclusive [inhibitor, partial curve] |
| O=C(NCC(=O)N(CCc1ccccc1)C(C(=O)NC1CCCCC1)c1ccncc1)c1ccco1 (configuration not stated) | – | inconclusive [inhibitor, single point] |
| O=S(=O)([N-]c1nc2ccccc2nc1-n1cc[n+](Cc2ccccc2)c1)c1ccccc1 | – | inconclusive [inhibitor, partial curve] |
| O=C1/C(=C/c2ccc(O)c(O)c2)Oc2cc(O)ccc21 | – | inconclusive [inhibitor, partial curve] |
| O=C(NC(=S)NC1C2CC3CC(C2)CC1C3)c1ccccc1 (configuration not stated) | – | inconclusive [inhibitor, full curve] |
| O=C(NC(=S)NC(=O)c1ccccc1F)c1ccccc1F | – | active: 2.82 µM |
| Cc1ccc(-c2nnc(N(C)C(=O)c3ccncc3)s2)cn1 | – | inconclusive [inhibitor, full curve, poor fit] |
| O=C(CC(c1ccc(F)cc1)c1ccco1)N1CCCC1 (configuration not stated) | – | active: 14.1 µM |
| Cc1cc(C)cc(N(CC(=O)NCc2ccco2)C(=O)CCC(=O)Nc2ccccn2)c1 | – | inconclusive [inhibitor, partial curve] |
| NC(=O)N/N=C/c1ccc(N2CCOCC2)s1 | – | inconclusive [inhibitor, partial curve] |
| Cc1csc(N/N=C\c2cccnc2)n1 | – | active: 22.4 µM |
| O=C(CNC(=O)c1ccco1)Nc1ccc(S(=O)(=O)N2CCCC2)cc1 | – | inconclusive [inhibitor, full curve, poor fit] |
